In all, about 4,500 sequences were measured (“median log2 fold change of GCK-ALFA target abundance (FLAG IP / Myc IP barcode read proportion)”: median about 0.078, lowest 2% from about -0.6 on). This is one part of the list.
B1: GBRAP_160_4549 (protein)
chain: KEKVEELIEELDEMAEFIKEQVGKVSIDELIAFVDVEFGSFILEGIEKGVLSDELEDKLAEIRDELLARLRANADASPEEKKAMIDEAAKKAKELLKEES
B2: GBRAP_96_7091 (protein)
chain: MLEEVKKLVKKAIEAKNTNEEEFNKYVKELLKYPAELIAKALVELGVSDEEIVTLSRKMFELDPSKIGEILEALVEHIPSSAVSQVAKVAEEIEKELEAK
B3: GBRAP_35_5602 (protein)
chain: ETDEFAADSLIDQIEALVEGVPELDPETLAAIGETLLRDAEELIEDLKNNAELLERIAEALERLAEALERHHGDNPLMQEVLARVRELLERARRLIEEIK
B4: GBRAP_80_6861 (protein)
chain: AEAALAAARAALKALLPEQAALVDEVVAIAQQLGVPLADIADLLEALVELAKVDKELAAELLEELLEDLKEELEEGDSANALATVRGYAGEALMEAEELE
B5: GBRAP_80_6848 (protein)
chain: AEERLAAALAALEALLPEVAEEARELVALARELGVPDEEIAAFLEALNELAKLDPELAAELIREALEDMKELKEEGDSENALAVVRGYTGDALMAAEELE
B6: GBRAP_160_4241 (protein)
chain: SMRIEELEKEIREEGRLLVEALLEVPPSQWRAIARAFAGDIVQLVIEDENASDEMEDAVDEKAEAMVERLVAAKDASPEEIKALVDEGVDEIIETVKELS
B7: GBRAP_11_2667 (protein)
chain: KKEVYKKAAELAKELAKTVKKLIEEGIDNEELIKKAEELLKELKELAKKELDKASQKEVEVLEEIWKEAKEDKENSLKYWELLLAGARVLEGNFLLEYDE
B8: GBRAP_78_6643 (protein)
chain: EVEELVDEAVEELDEAAKLALKLPEEERNELLDELVEALSYIDESEENGFDLEELEKALEEVEKALELVKKIDHPEAPKIKEELERAKKLLEEAIKLLKE
B9: GBRAP_52_6226 (protein)
chain: MEEEMRALVEEGVALVKAGRLEEAAALAREIVETMNDEELRIFIDEFARAVREAPLEDLPHYERLRELVAAAMEEAGKDEVLIDYLEARFAAAAYERLQR
B10: GBRAP_52_5967 (protein)
chain: MRERARELVERAAELARAGDEEGLEALLREIARTWDDEELRLLAEALAERAREGDPEEAEIALEIAIRLADVLEEEGRDPRLAADLLGLVARAAYEKELA
B11: GBRAP_160_4835 (protein)
chain: SEKVEEAKEFIDEEFEEMIEMMKGETPENRAAIVAVGMGEIIMELEEMGVATDELEDFIVEIEDELVETILENPDLTDEELEELLEEAREKIKEKLEEEA
B12: GBRAP_137_3631 (protein)
chain: ATVTIDIRHYPGVVEITVTLKDAAKAEAVKELVLDIAHEHGALAVSAEIDEDGTLTVTIWVPTERADALLDALVRRLTTELGATVVVRDLDTGEERTYTP
B13: GBRAP_52_6094 (protein)
chain: AEAKRQAYADALLAAALAGDVDAATAIILDMVAELSEEEVRATFRLFAEKASTLPADELERATEVFIEALDRVADETGLEELMDEMEAYLAAKAYAALQA
B14: GBRAP_125_3049 (protein)
chain: SLEEAIEALAALARLLGYSEEEVEELRELARRHGVKGALIALMLAEGEEELADLASQLTDEEVAEVLAAHLAWLRAHPDATAEEALAHLRALLRAALAKR
B15: GBRAP_11_2754 (protein)
chain: KKEELKKMAELAKKAAELIQKLLEEGVDNEELREELEKTLEELAKLTKEYGDEADKKLVEIMKELWEEALADPENAVKYWEELLAAARVLAGDYLLDYEE
B16: GBRAP_80_6794 (protein)
chain: AEARLAAALAEVEALDPELAERVREIVEEAREMGVATEDLADFVAAIAKLLKLDREKARELVEELEEELEELKEEGDAEGAAATVRVYAGEALLEVEELE
B17: GBRAP_125_3083 (protein)
chain: DVEEALEYAGLILKAAGFSDEDVEEFKKASKDSTVSAIFSAVVLAITDEETELKALQLTEEQQLQVLKELAEYIEAHPDVTPEEVKEKLKELIDKALAEQ
B18: GBRAP_184_5318 (protein)
chain: EVVEVVLEVNSVEELRAGMAAVMAEVRASGKRVLLVVELRNATEEKIDELAALIKEAKAAGLPIEVIVETLDPLDEELVDHAVEKMDAAGARLVIAISDE
B19: GBRAP_160_4094 (protein)
chain: MEEIEKLIEEIDELRERAKKEIEGENIEQRAVILRGFGGDVLMLLFESGIAPDEVEDFADEEFDDLVATVEANPELTLEEIKALLDEVVEKVKEKIKELG
B20: GBRAP_184_5285 (protein)
chain: TVRDVEIVAETAEEAIAQVRAAAERARAEGAKLRLTLLLRDSDVEGVVALFKLLKELRDEGVIEDAVVGLEREVTEEELDTLLKAADEAGVKLVAAISDE
B21: GBRAP_184_5248 (protein)
chain: AVASLELTVRSAADIPAAVAAFAAHAAAHHGAVHVLLDAEGLSTAERVALVDALGAAAAAAGVTALTIDLTREVSEEEADALIAAADARGVRLVLALKDE
B22: GBRAP_52_5980 (protein)
chain: AEAEARALAEELLALMLAGDREGARALIREIVATKSEAFLELVFAALAELARTATPEERDAIVELALLLEDEALEGGFDEAVVDAGVARVAAAAVAAAAA
B23: GBRAP_184_5041 (protein)
chain: KIFEAEIEFNNLEELKEKLAELKEEVKNHKGTLIVHVKAPEFTKEMVETLMAALKEILDKGYAEKVTVGLDGKMSEEVVDLAVELADEAGINLVLALDEE
B24: GBRAP_125_3000 (protein)
chain: PSEAELAAVATLAAALGYSPADVEELVALARAHGVKQTMIAIALAEGAEELAEALEQLSEAEVAALLARVAAHIAAHPDLTPEELLELILALAREALAAR
B25: GBRAP_160_4406 (protein)
chain: SESFEKLKEEVKEIFDEAEELIKGQSPEERLVIARVSLGEILLEAFENEEITDEQEDELAKILDEGLKKIEKAVKEGEEAVLKAIRETRDKVLAFIDSLK
B26: GBRAP_78_6590 (protein)
chain: EIEKAIDELLEATNKAMTLLAKNPTEFAQDILGKLIDESTAIYEAREEYNDKELIKKEAKALKETLEEALAHADKFTPETVAALKEALEKAEKLIKLLEK
B27: GBRAP_160_4300 (protein)
chain: MEELEKLKKEIEEIADEAIEMIEGESPEQRRTIVRVAMGEVILLAMENPKVTDEAEDKIAAIADATEATIDANPDLSEEEVKELIEKARDEVIKIIKELE
B28: GBRAP_128_3366 (protein)
chain: LDEALLAEIRALVERMITSSVEETAALTREIVARIGTLSLAEQEAAVEIILAALPKLTKEKLEVVADTIRAAAPELDPETQRLLAEVEVEALNLAEELEE
B29: GBRAP_14_3796 (protein)
chain: MEEREKEINEIGEETIEIVKEIMKDAPEEVKEKVIELIEEARDKIIKEKLNSDEAAELGDETVKKVEEILKDAPPEVKAQVIATVAVMFGEIVLEIEELE

Each binder was assayed against GABARAP, O95166 (assay: median log2 fold change of GCK-ALFA target abundance (FLAG IP / Myc IP barcode read proportion) (log2 ratio); each designed protein is fused to an ALFA-tag nanobody in HEK293 cells to bring the named protein to FLAG-tagged glucokinase (GCK); Myc marks an untargeted standard; higher = target protein stabilised (more abundant)). Conditions: target protein: 3xFLAG-MCP-GCK-ALFA reporter; HEK293 landing pad (RPLP).
Sequence of GABARAP, O95166 (O95166 whole entry, the tested form may be a part): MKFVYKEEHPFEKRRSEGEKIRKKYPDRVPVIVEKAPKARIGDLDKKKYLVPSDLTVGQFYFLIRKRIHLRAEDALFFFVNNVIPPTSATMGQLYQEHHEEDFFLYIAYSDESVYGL
Method in brief: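 Binders fused to an ALFA nanobody were recombined as a library into HEK293 landing-pad cells, which were induced with 2 μg mL^−1 doxycycline and then transfected to express a FLAG-tagged target and a Myc-tagged standard. After 48 h, circular RNA barcodes recovered by anti-FLAG and anti-Myc immunoprecipitation of lysates were reverse transcribed, amplified and sequenced. Each binder's target abundance is the median log2 ratio of FLAG to Myc barcode read proportions, from barcodes present at ≥10^−7 in both replicates, binders carrying ≥3 barcodes per replicate, a 10^−6 pseudocount and pooled replicates.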
B1 was tested, and the “median log2 fold change” value was 0.249. In the case of B2, the “median log2 fold change” value is reported as 0.176. In the case of B3, the “median log2 fold change” value is reported as -0.011. For B4, the “median log2 fold change” value was -0.579. B5 was tested, and the “median log2 fold change” value was -0.203. With B6 the “median log2 fold change” value was -0.0817. For B7, the “median log2 fold change” value was -0.102. B8 was tested, and the “median log2 fold change” value was -0.174. With B9 the “median log2 fold change” value was 0.00404. For B10, the “median log2 fold change” value was -0.344. B11 was tested, and the “median log2 fold change” value was -0.539. For B12, the “median log2 fold change” value was 0.0981. In the case of B13, the “median log2 fold change” value is reported as -0.102. With B14 the “median log2 fold change” value was -0.288. In the case of B15, the “median log2 fold change” value is reported as 0.279. In the case of B16, the “median log2 fold change” value is reported as -0.508. For B17, the “median log2 fold change” value was 0.133. B18 was tested, and the “median log2 fold change” value was 0.0313. With B19 the “median log2 fold change” value was -0.0612. With B20 the “median log2 fold change” value was -0.105. For B21, the “median log2 fold change” value was 0.128. In the case of B22, the “median log2 fold change” value is reported as -0.762. With B23 the “median log2 fold change” value was 0.113. In the case of B24, the “median log2 fold change” value is reported as -0.00702. For B25, the “median log2 fold change” value was -0.138. With B26 the “median log2 fold change” value was 0.216. With B27 the “median log2 fold change” value was -0.125. With B28 the “median log2 fold change” value was 0.309. B29 was tested, and the “median log2 fold change” value was -0.186.
